This note sets out measurements from the supplement of paper PMC10126150.

Sequences with one replicate were seen in a single cluster, so their values are uncertain.

For the series, the system named is ATP. The experiment in a line: switch fluorescence ratio, 500 uM ATP over buffer (Cy3 cluster intensity, sum of 5 cycles each) (fold (ratio)); higher = stronger signal-on switching upon ATP binding; sequences stand for … in TCGTCGGCAGCGTCAGATGTGTATAAGAGACAGTTTTTTTTTTTTTTTTTTTTTTTTT…TC. The following applies: aptamer strand: ATP DNA aptamer (quencher-CACCTGGGGGAGTATTGCGGAGGAAGG + anchor), 100 nM annealed; ATP concentration: 500 uM; one replicate. Put shortly: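 Between each of five buffer/ATP cycles, the flow-cell was stripped with NaOH and re-annealed. Each cycle imaged Cy3-labelled switching-strand clusters, annealed to 100 nM quencher-labelled ATP aptamer on a modified Illumina MiSeq flow-cell, first in selection buffer and then after 15 min with 500 uM ATP at 22 °C. The fluorescence ratio is summed target-cycle over summed buffer-cycle Cy3 intensity per cluster, averaged per switch-domain sequence, with clusters outside 100-1000 RFU excluded.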
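Note: ATP exposure 15 min at 22 °C before imaging.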

As for TAATCTTGAG, the switch fluorescence ratio came out at 1.02.

Take ACCACCGGTC: the switch fluorescence ratio turned out to be 1.

For the sequence AGTGATTCAG, the switch fluorescence ratio is 0.949.

For the sequence TCAACTTG, the switch fluorescence ratio amounted to 1.03.

Turning to CCAGAATGGT, the switch fluorescence ratio came out at 0.989.

As to GATGCTACG, the switch fluorescence ratio is 1.03.

For the sequence AGAACGAAGA, the switch fluorescence ratio was found to be 1.02.

For TCCAAATAAA, the switch fluorescence ratio stood at 1.

On to CTTCTTAGTA, for which the switch fluorescence ratio stood at 0.993.

Take TAACATGGGG: the switch fluorescence ratio stood at 1.

On to AGGTTCGGT, for which the switch fluorescence ratio is 0.976.

Take GAGGGTCATG: the switch fluorescence ratio is 1.04.

Consider AAAGTGATGA, for which the switch fluorescence ratio was determined as 1.04.

For TTTGAGAATG, the switch fluorescence ratio was 0.976.

As for TAAACGTCTT, the switch fluorescence ratio worked out at 1.14.

On to TCTGCGCGCC, for which the switch fluorescence ratio was 1.01.

With TACCGAATCT, the switch fluorescence ratio stood at 1.06.

Turning to AAGGATTGTA, the switch fluorescence ratio amounted to 0.945.

Take TCCGTG: the switch fluorescence ratio was 2.29.

For GAAGGGTGGT, the switch fluorescence ratio is 0.966.

On to ACCTGGAATG, for which the switch fluorescence ratio came to 1.02.

As to ACATCCATGC, the switch fluorescence ratio worked out at 1.02.

For the sequence TAAATTTGAT, the switch fluorescence ratio amounted to 0.99.

With CCCAGCAAAT, the switch fluorescence ratio came to 3.8.

Consider ATCCTGTGTT, for which the switch fluorescence ratio was found to be 0.974.

For the sequence TTACATTATG, the switch fluorescence ratio came out at 1.01.

As to CTTAGGAGCC, the switch fluorescence ratio amounted to 0.978.

Turning to AATTGCGGAC, the switch fluorescence ratio was found to be 1.

Take TTACAAAGTA: the switch fluorescence ratio turned out to be 0.984.

GTCCACCTGG: the switch fluorescence ratio amounted to 1.33.

Turning to GTGTCCTAGC, the switch fluorescence ratio came out at 0.975.

For the sequence GCTTTGTG, the switch fluorescence ratio was determined as 0.993.

As to AAGACCATCA, the switch fluorescence ratio was found to be 1.01.

On to ACAAGAGCAT, for which the switch fluorescence ratio was 0.996.

Regarding TTCGCTGAGA, the switch fluorescence ratio is 1.05.

TGTTCTTCCT: the switch fluorescence ratio was 1.09.

For the sequence CCCGAGACAG, the switch fluorescence ratio was 1.01.

With CTGTTATCTG, the switch fluorescence ratio worked out at 1.04.

On to CGGCGTGAAT, for which the switch fluorescence ratio is 1.02.

In the case of GCGATGAATA, the switch fluorescence ratio was 0.973.

For TGTACGAGTG, the switch fluorescence ratio is 1.

Turning to TCCAATAGTT, the switch fluorescence ratio stood at 0.986.

As for TAAGCTAGTT, the switch fluorescence ratio is 0.966.

Regarding CACAATAGCT, the switch fluorescence ratio came out at 1.03.

CCATGGATTG: the switch fluorescence ratio was found to be 1.04.

CAGCGGCCCC: the switch fluorescence ratio is 1.1.

Take CCTCATTCCG: the switch fluorescence ratio amounted to 1.23.

For the sequence GGTGGGGCC, the switch fluorescence ratio came out at 1.02.

As for AAAAGGGACC, the switch fluorescence ratio stood at 0.949.

For GGGGGTTA, the switch fluorescence ratio worked out at 1.04.

CGAGGTTCAG: the switch fluorescence ratio worked out at 0.991.

Take GGACGCGTGT: the switch fluorescence ratio stood at 1.12.

On to ATTGCTTGTG, for which the switch fluorescence ratio was found to be 0.957.

Consider CACAAGAGC, for which the switch fluorescence ratio is 0.987.

Turning to TTGCGCCGA, the switch fluorescence ratio turned out to be 1.01.

In the case of GCGCTTCAGG, the switch fluorescence ratio came to 1.06.

Turning to CGTTTTTTGG, the switch fluorescence ratio was found to be 0.973.

TTGATGCATT: the switch fluorescence ratio is 0.943.

TCGCACCTTT: the switch fluorescence ratio was determined as 1.07.

As to GTATGTGGGA, the switch fluorescence ratio was 0.981.

On to GTGCTGGGAC, for which the switch fluorescence ratio was determined as 1.04.

On to CATGGTGGGT, for which the switch fluorescence ratio was 0.962.

For GAAGGCATAG, the switch fluorescence ratio worked out at 1.08.

Take ATCTGGTCGT: the switch fluorescence ratio is 0.98.

Take CCGGAATGCG: the switch fluorescence ratio came to 2.11.

AGATTCAATG: the switch fluorescence ratio amounted to 0.982.

Regarding TTTGGCAGTT, the switch fluorescence ratio came to 1.04.

As for TCATAGTGGA, the switch fluorescence ratio is 0.99.

For the sequence GCATACACTG, the switch fluorescence ratio amounted to 1.12.

On to CGTCTGATTC, for which the switch fluorescence ratio came out at 1.05.

Take AGGTTAGGAG: the switch fluorescence ratio turned out to be 1.02.

For the sequence ATCATCGCGG, the switch fluorescence ratio turned out to be 1.03.

As to TCCGCATGGT, the switch fluorescence ratio came to 2.88.

Regarding TCTGTTCGAT, the switch fluorescence ratio came out at 0.966.

GTTGTTGGTC: the switch fluorescence ratio was determined as 0.985.

On to CGGGTACAGC, for which the switch fluorescence ratio came out at 0.985.

As for TCTTTTGCTG, the switch fluorescence ratio was 0.979.

Turning to GCAGCTTAGC, the switch fluorescence ratio was found to be 1.02.

As for TCTGAGGATG, the switch fluorescence ratio was determined as 1.04.

On to CGGTGGCTTA, for which the switch fluorescence ratio came to 1.02.

For the sequence AATGCGGCTG, the switch fluorescence ratio amounted to 1.1.

With GAGAAACGCC, the switch fluorescence ratio came out at 1.01.

With GTTAGCGATA, the switch fluorescence ratio was found to be 1.29.

With AGTGGGAAGT, the switch fluorescence ratio came to 0.998.

GTTGTTGGCG: the switch fluorescence ratio was determined as 1.01.

Take GACATTGGGT: the switch fluorescence ratio stood at 1.01.

CGATGGTTCC: the switch fluorescence ratio stood at 0.993.

For the sequence TAATCGTTGA, the switch fluorescence ratio was 0.968.

Regarding AAAAAAGAT, the switch fluorescence ratio was found to be 0.955.

In the case of GAACTTTGTT, the switch fluorescence ratio amounted to 1.05.

As to GGTGGAGTT, the switch fluorescence ratio amounted to 1.06.

In the case of GTCGGCCAAG, the switch fluorescence ratio is 0.974.

Take AGTCCTCCCG: the switch fluorescence ratio was determined as 1.4.

GACCTCTTGA: the switch fluorescence ratio amounted to 0.963.

Turning to TGAACCGTAG, the switch fluorescence ratio is 1.08.

As to AGCTCCCGGG, the switch fluorescence ratio turned out to be 1.13.

For TCATAGAACT, the switch fluorescence ratio stood at 1.01.

With TTCTGTCTTG, the switch fluorescence ratio turned out to be 0.971.

On to GACCACTAGT, for which the switch fluorescence ratio turned out to be 1.02.

For CTGAAAGTCG, the switch fluorescence ratio is 0.983.

Take GATATGTTAC: the switch fluorescence ratio stood at 1.05.

As for ATCGTAGTG, the switch fluorescence ratio was 0.972.

With ATGACATCTC, the switch fluorescence ratio was found to be 0.985.

Turning to CCAGTATATA, the switch fluorescence ratio worked out at 1.05.

Regarding TTCGCCGATG, the switch fluorescence ratio worked out at 1.

With CCCTTGCCCC, the switch fluorescence ratio worked out at 1.11.

ACCTAATC: the switch fluorescence ratio turned out to be 1.19.

Take TTCCGAATGG: the switch fluorescence ratio is 1.11.

Take CGCTGATCAG: the switch fluorescence ratio worked out at 1.01.

Turning to CCATGAGGGA, the switch fluorescence ratio was 1.04.

On to GGGAAGCGAG, for which the switch fluorescence ratio stood at 0.95.

For AATTTGTGTC, the switch fluorescence ratio was found to be 1.04.

For the sequence ATATGGTAGG, the switch fluorescence ratio was determined as 1.

With AGTCTTCCGA, the switch fluorescence ratio is 1.2.

For ACCCGGCAAG, the switch fluorescence ratio worked out at 1.34.

In the case of TAGAGTATCA, the switch fluorescence ratio was 1.01.

In the case of TGCATATATG, the switch fluorescence ratio is 0.963.

Consider TATAGTTCGA, for which the switch fluorescence ratio was 1.02.

Consider AAGTTTGGTA, for which the switch fluorescence ratio worked out at 1.

Consider TGCCTATCGC, for which the switch fluorescence ratio is 1.04.
